Hit rate of the full screen: of about 45,000 compounds, about 200 (0.44%) were called active. Roughly 7% stayed inconclusive and do not appear here. The call rests on the fitted dose curve; in most records, active means well fitted activation curve with a large enough effect; inconclusive means small, poorly fitted or top-dose-only effect; inactive means no such curve, though single readings can be large or run the other way. Some of the results follow.
Assay: qHTS of TDP-43 Inhibitors: NCGC Sytravon Library Screen; further: 0% is about no effect; nearly all actives have a fitted effect of over 55% in size
Details: yeast TDP-43 toxicity rescue, BacTiter-Glo growth, 24 h; series mostly up to 46.1 µM; growth rescue (activation): at the top concentration
In short: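 TDP-43-expressing yeast, pregrown in raffinose, seeded at OD600 0.02 in galactose medium with compound for 24 hr at 30 deg C. Growth read by BacTiter-Glo luminescence, so rescue of toxicity appears as activation.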
With CCN(CC)CCCNc1cc2n(c(=O)n1)CCc1cc(OC)c(OC)cc1-2 the “growth rescue (activation)” value was inactive: -8.56%. With O=Cc1ccccc1OS(=O)(=O)c1ccccc1 the “growth rescue (activation)” value was inactive: -33.6%. For Cn1nc(C(=O)Nc2cccc(S(N)(=O)=O)c2)c2ccccc2c1=O, the “growth rescue (activation)” value was inactive: -9.16%. In the case of Cc1cc(Br)ccc1NC(=O)CN1C(=O)c2cccnc2Sc2ccccc21, the “growth rescue (activation)” value is reported as inactive: 11%. In the case of Cc1ccc(C)c(N(C(=O)CNC(=O)c2ccco2)C(C(=O)NCC2CCCO2)c2ccccc2)c1 (configuration not stated), the “growth rescue (activation)” value is reported as inactive: -5.1%. With COc1ccc(CN2CCN(C(=O)c3ccc4c(c3)CCC4)CC2)cc1OC the “growth rescue (activation)” value was inactive: 8.71%. In the case of Cc1ccc(Cl)cc1NC(=O)COC(=O)CSc1ccccc1, the “growth rescue (activation)” value is reported as inactive: 2.08%. In the case of CC(=O)N1CCCC(C)(C(=O)Nc2ccc3nc(C)ccc3c2)C1 (configuration not stated), the “growth rescue (activation)” value is reported as inactive: 5.61%. For CC(=O)Nc1ccc(CNc2nc3cc(-c4cccc(C(F)(F)F)c4)sc3c(=O)n2C)cc1, the “growth rescue (activation)” value was inactive: 6.33%. For OCC1(Cc2cccc(Cl)c2)CCCN(Cc2ccc3cc(F)ccc3n2)C1 (configuration not stated), the “growth rescue (activation)” value was inactive: 13.1%. In the case of O=C(O)c1cccc(C(=O)c2cccc(C(=O)O)c2)c1, the “growth rescue (activation)” value is reported as inactive: 4.76%. In the case of COCCSc1nnc(NC(=O)c2ccc(NC(C)=O)cc2)s1, the “growth rescue (activation)” value is reported as inactive: 13.8%. With COc1cc(/C=C/C(=O)OCC(=O)Nc2cc(C(F)(F)F)ccc2N2CCOCC2)ccc1O the “growth rescue (activation)” value was inactive: 16%. With C[C@]12CC[C@H](OC(=O)CCC(=O)O)CC1=CCC1C2CC[C@@]2(C)C1CC[C@@H]2N (some centres not stated) the “growth rescue (activation)” value was inactive: -23.5%. For CC(C)c1ccccc1OCC(=O)Nc1ccccc1C(=O)N1CCOCC1, the “growth rescue (activation)” value was inactive: 10.6%. With CC(=O)Oc1cccc(N2C(=O)c3ccc(C(=O)Nc4c[nH]c(=O)[nH]c4=O)cc3C2=O)c1 the “growth rescue (activation)” value was inactive: 0.403%. For Cc1ccc(NC(=O)C2CCN(S(=O)(=O)c3cccs3)CC2)cc1, the “growth rescue (activation)” value was inactive: 24.5%. For O=C(N/N=C/C1CC=CCC1)c1cc(Br)ccc1O (configuration not stated), the “growth rescue (activation)” value was inactive: -4.54%. For CC1(C(=O)Nc2cnc3ccccc3c2)CCN1Cc1ccccc1OC(F)F (configuration not stated), the “growth rescue (activation)” value was inactive: 15.5%. In the case of Cc1nn(CC(=O)Nc2ccc(N3CCOCC3)cc2)c(C)c1[N+](=O)[O-], the “growth rescue (activation)” value is reported as inactive: 11.2%. For Cc1nc(NC(=O)C(Cl)Cl)sc1C(=O)N(C)C, the “growth rescue (activation)” value was inactive: 5.91%. In the case of O=C(Nc1ccc(Br)cc1)c1ccc(F)c(S(=O)(=O)N2CCN(c3ccccn3)CC2)c1, the “growth rescue (activation)” value is reported as inactive: -8.81%. With C/C(=N\NC(=S)NCc1ccccc1)c1ccccc1F the “growth rescue (activation)” value was inactive: 31.7%. In the case of Cc1cccc(OCC(=O)Nc2ccc(N3CCN(C(=O)c4ccco4)CC3)cc2)c1C, the “growth rescue (activation)” value is reported as inactive: 20%. With Cc1cccc(/C(N)=N/OC(=O)C23CC4CC(CC(C4)C2)C3)c1 the “growth rescue (activation)” value was inactive: -52.5%. For O=C(O)c1cccc(NC(=O)c2cc(S(=O)(=O)N3CCOCC3)cs2)c1, the “growth rescue (activation)” value was inactive: -20.2%. For CC1(C)CC(NC(=O)COc2ccc([N+](=O)[O-])cc2)CC(C)(C)N1, the “growth rescue (activation)” value was inactive: 9.34%. For COc1ccc(NC(=O)c2ccccn2)cc1S(=O)(=O)N1CCOCC1, the “growth rescue (activation)” value was inactive: -10.6%. With COc1ccc(/C=C2\SC(=S)N(CCC(=O)N3CCCCC3)C2=O)cc1 the “growth rescue (activation)” value was inactive: 16.7%. In the case of COc1cccc(NC(=O)COc2cccnc2[N+](=O)[O-])c1, the “growth rescue (activation)” value is reported as inactive: -5.85%. In the case of Cc1c(Cl)c([N+](=O)[O-])nn1CC(=O)N1CCN(Cc2ccccc2)CC1, the “growth rescue (activation)” value is reported as inactive: 1.63%. In the case of O=C(Nc1ccc(NC(=O)c2ccccc2Cl)cc1)c1cccnc1, the “growth rescue (activation)” value is reported as inactive: 3.47%. With Cc1[nH]c(=S)c(C#N)c2c1CCCC2 the “growth rescue (activation)” value was inactive: -17.4%. In the case of COc1cc(CNCc2ccccn2)ccc1OCc1ccccc1Cl, the “growth rescue (activation)” value is reported as inactive: -3.99%. In the case of CC1CCCN(CC(O)COC(c2ccccc2)c2ccccc2)C1 (configuration not stated), the “growth rescue (activation)” value is reported as inactive: -1.51%. For CC(NC(=O)CNC(=O)c1ccco1)c1ccc(S(N)(=O)=O)cc1 (configuration not stated), the “growth rescue (activation)” value was inactive: -14%. In the case of CCC1(c2ccc(F)cc2)NC(=O)NC1=O (configuration not stated), the “growth rescue (activation)” value is reported as inactive: 5.3%. In the case of CCc1c(C(=O)N/N=C/c2sccc2C)nnn1-c1nonc1N, the “growth rescue (activation)” value is reported as inactive: -8.36%. With O=C(NC1=NCCS1)c1ccc(N2CCCC2=O)cc1 the “growth rescue (activation)” value was inactive: 3.95%. With Cc1nc2c(Cl)c(C)nn2c2c1CCC2 the “growth rescue (activation)” value was inactive: 30%. With Cc1ccccc1S(=O)(=O)NC(=O)C1(C)CCN1C(=O)Cc1ccc(C(C)(C)C)cc1 (configuration not stated) the “growth rescue (activation)” value was inactive: 16.5%. For CN(C)/N=C/c1ccc(/C=N/NC(N)=S)o1, the “growth rescue (activation)” value was inactive: 9.43%. In the case of Cc1nn(C)c(C)c1Nc1ccc(N2C(=O)C3CC=CCC3C2=O)cc1[N+](=O)[O-] (configuration not stated), the “growth rescue (activation)” value is reported as inactive: 8.31%. In the case of NS(=O)(=O)c1ccc(CCNC(=O)c2ccc(Br)s2)cc1, the “growth rescue (activation)” value is reported as inactive: -21.4%. For Cc1cc(/C=C2\NC(=O)NC2=O)c(C)n1-c1cccnc1, the “growth rescue (activation)” value was inactive: 2.44%. In the case of COc1ccc(-c2nc(CN3CCCCC3CCc3ccccn3)c(C)o2)cc1 (configuration not stated), the “growth rescue (activation)” value is reported as inactive: 9.79%. For Cc1ccc(S(=O)(=O)N2CCCN(C)CC2)cc1, the “growth rescue (activation)” value was inactive: 7.5%. With CCOc1ccc(N2C(=O)C3C(c4ccc(OC)cc4OC)NC(CCSC)(C(=O)OC)C3C2=O)cc1 (configuration not stated) the “growth rescue (activation)” value was inactive: 8.16%. With CCOc1cc2c(cc1OC)C(c1cccc([N+](=O)[O-])c1)NCC2 (configuration not stated) the “growth rescue (activation)” value was inactive: -4.12%. With CCCCNS(=O)(=O)c1cccc(NC(=O)[C@@H]2O[C@H](CO)[C@H](O)[C@H](O)[C@H]2O)c1 the “growth rescue (activation)” value was inactive: -10.4%. With CSc1ccc(CCNC(=O)CN2C(=O)CCSc3ccccc32)cc1 the “growth rescue (activation)” value was inactive: 0.762%. With O=C(N/N=C/c1ccncc1)c1cc(C2CC2)nc2ccccc12 the “growth rescue (activation)” value was inactive: 2.53%.

Source: PubChem BioAssay AID1347073 (National Center for Advancing Translational Sciences (NCATS), 2019)
